According to the supplement of paper PMC7826260:
The other results are listed elsewhere or left out. Viral Rep nickase domains cut single-stranded DNA in vitro (1 h at 37 °C, 3 µM enzyme); the outer parts of the 90-letter strands are left off. Uncut reads are compared with the no-enzyme pool on a log2 scale; more negative means more cut, near 0 not cut, and no call is made. Counts are relative to all reads; uncut strands gain when others are lost, and binding without cutting may add a little.

Columns and labels:
Experiment in all cases: uncleaved DNA left, log2 of reads against the no-enzyme library (log2 ratio); higher = less cleavage (more negative = more Rep cleavage of the k-mer); sequences stand for … in CTCGTCCG…ACCGGAGA
[1] = tested on: T1, Rep nickase domain of Muscovy duck circovirus
T1 sequence (protein, residues 1-111, tag omitted): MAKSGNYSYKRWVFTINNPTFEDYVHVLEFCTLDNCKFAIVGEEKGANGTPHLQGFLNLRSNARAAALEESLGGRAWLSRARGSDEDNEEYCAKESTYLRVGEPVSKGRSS
Protocol: (§1)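 A pool of 90-nt single-stranded DNAs with seven random bases just before the constant AC of the nick site (name = the seven bases) was cut by 3 µM recombinant His6-SUMO-tagged Rep nickase domain (300 nM DNA, 50 mM HEPES pH 8.0, 50 mM NaCl, 1 mM MnCl2, 1 h, 37 °C, three replicates). Uncut DNA was amplified and sequenced.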

[2] = tested on: T2, Rep nickase domain of banana bunchy top virus
T2 sequence (protein, residues 1-94, tag omitted): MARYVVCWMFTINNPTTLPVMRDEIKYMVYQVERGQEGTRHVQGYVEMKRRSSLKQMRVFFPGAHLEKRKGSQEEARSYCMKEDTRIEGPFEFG
Protocol: as §1

[3] = tested on: T3, Rep nickase domain of cabbage leaf curl virus
T3 sequence (protein, residues 1-116, tag omitted): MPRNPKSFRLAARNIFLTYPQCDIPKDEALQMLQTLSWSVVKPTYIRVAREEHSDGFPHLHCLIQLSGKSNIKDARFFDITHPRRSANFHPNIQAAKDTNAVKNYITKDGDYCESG
Protocol: as §1

[4] = tested on: T4, Rep nickase domain of chickpea chlorotic dwarf virus
T4 sequence (protein, residues 1-124, tag omitted): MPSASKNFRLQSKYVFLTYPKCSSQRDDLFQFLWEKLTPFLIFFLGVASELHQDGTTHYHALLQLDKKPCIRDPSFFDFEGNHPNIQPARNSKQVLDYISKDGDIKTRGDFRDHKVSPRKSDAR
Protocol: as §1

[5] = tested on: T5, Rep nickase domain of faba bean necrotic yellows virus
T5 sequence (protein, residues 1-98, tag omitted): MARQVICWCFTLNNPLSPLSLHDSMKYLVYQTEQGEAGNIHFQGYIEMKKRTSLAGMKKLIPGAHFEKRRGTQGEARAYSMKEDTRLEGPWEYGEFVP
Protocol: as §1

[6] = tested on: T6, Rep nickase domain of maize striate mosaic virus
T6 sequence (protein, residues 1-117, tag omitted): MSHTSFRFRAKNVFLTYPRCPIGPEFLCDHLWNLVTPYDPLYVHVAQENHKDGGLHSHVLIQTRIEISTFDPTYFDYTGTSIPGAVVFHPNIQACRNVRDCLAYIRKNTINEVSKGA
Protocol: as §1

[7] = tested on: T7, Rep nickase domain of porcine circovirus 2
T7 sequence (protein, residues 2-116, tag omitted): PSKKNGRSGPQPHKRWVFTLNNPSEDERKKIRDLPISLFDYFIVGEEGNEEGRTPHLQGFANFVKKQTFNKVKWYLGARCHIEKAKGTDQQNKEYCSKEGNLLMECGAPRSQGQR
Protocol: as §1

[8] = tested on: T8, Rep nickase domain of tomato golden mosaic virus
T8 sequence (protein, residues 1-124, tag omitted): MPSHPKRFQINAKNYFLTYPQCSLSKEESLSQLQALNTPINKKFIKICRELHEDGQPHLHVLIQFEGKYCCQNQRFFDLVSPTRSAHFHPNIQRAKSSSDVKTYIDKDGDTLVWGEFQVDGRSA
Protocol: as §1

[9] = tested on: T9, Rep nickase domain of tomato yellow leaf curl virus
T9 sequence (protein, residues 1-136, tag omitted): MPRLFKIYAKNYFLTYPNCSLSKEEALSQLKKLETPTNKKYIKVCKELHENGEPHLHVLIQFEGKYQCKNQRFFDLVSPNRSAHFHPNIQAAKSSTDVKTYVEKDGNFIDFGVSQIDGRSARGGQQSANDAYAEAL
Protocol: as §1

[10] = tested on: T10, Rep nickase domain of wheat dwarf virus
T10 sequence (protein, residues 1-137, tag omitted): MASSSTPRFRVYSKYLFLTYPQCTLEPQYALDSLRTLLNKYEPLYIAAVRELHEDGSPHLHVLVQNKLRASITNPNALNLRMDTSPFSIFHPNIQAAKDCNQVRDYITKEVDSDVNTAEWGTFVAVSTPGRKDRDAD
Protocol: as §1

| Sequence | uncleaved DNA left (log2) [1] | uncleaved DNA left (log2) [2] | uncleaved DNA left (log2) [3] | uncleaved DNA left (log2) [4] | uncleaved DNA left (log2) [5] | uncleaved DNA left (log2) [6] | uncleaved DNA left (log2) [7] | uncleaved DNA left (log2) [8] | uncleaved DNA left (log2) [9] | uncleaved DNA left (log2) [10] |
| --- | --- | --- | --- | --- | --- | --- | --- | --- | --- | --- |
| AGCGCAT | 0.108 | 0.196 | 0.163 | 0.569 | -0.0381 | 1.34 | 0.0941 | 0.222 | 0.0804 | 0.122 |
| ATTGGCC | 0.0795 | 0.0178 | 0.0321 | 0.483 | -0.0818 | 0.548 | 0.135 | 0.146 | -0.0125 | -0.0586 |
| GCCTACC | -0.114 | -0.137 | -0.112 | -1.41 | -0.0894 | 0.03 | -0.503 | -0.175 | -0.115 | -0.189 |
| CGTTAGG | 0.108 | 0.0301 | 0.0554 | 0.736 | 0.0282 | 0.368 | 0.155 | 0.0901 | -0.0789 | 0.11 |
| CGGCCCT | -0.0292 | 0.00769 | 0.0956 | -0.278 | -0.074 | 0.354 | -0.148 | -0.0809 | 0.0159 | -0.0624 |
| TGGGCAA | -0.00413 | 0.0477 | 0.78 | 2.02 | 0.0073 | 2.16 | 0.158 | -0.0334 | 0.0442 | 0.159 |
| GTCCTTC | 0.0187 | -0.0975 | 0.24 | 0.736 | -0.157 | 1.44 | -0.013 | -0.0619 | -0.0378 | -0.0493 |
| TTCCACC | -0.0883 | -0.168 | 0.049 | -0.385 | -0.0567 | -0.0832 | -0.313 | -0.0967 | -0.0906 | -0.0836 |
| AGTTGCG | 0.0458 | -0.0193 | 0.379 | 1.35 | 0.126 | 1.83 | 0.225 | 0.0332 | -0.0209 | 0.0962 |
| GGCGTCG | 0.0513 | 0.0286 | -0.201 | 0.0744 | -0.0709 | -0.000631 | 0.139 | -0.0346 | -0.195 | -0.0763 |
| TAGTGCC | 0.0113 | -0.103 | -0.424 | -0.709 | -0.153 | -1.03 | -2.03 | -0.0505 | -0.112 | -0.168 |
| CCCACCT | -0.0625 | -0.0451 | -0.0533 | -2.08 | -0.0555 | -0.419 | -0.309 | -0.0586 | -0.0839 | -0.0589 |
| CTGATCA | 0.0428 | 0.0734 | 0.217 | -0.0636 | 0.0185 | 0.281 | 0.0484 | 0.00653 | 0.0342 | 0.0714 |
| TCTCCTC | -0.194 | -0.159 | 0.132 | 0.075 | 0.00268 | 0.379 | -0.112 | -0.0503 | -0.174 | -0.113 |
| ATGGAAT | 0.2 | 0.181 | 0.441 | 1.7 | 0.153 | 1.9 | 0.278 | 0.124 | -0.0428 | 0.236 |
